Assay results: paper PMC8488022 (Cell, 2021)

What was measured:
cryo-EM structure [1] = target: the molecule itself; assay: cryo-EM structure
cryo-EM structure [2] = target: the molecule itself; assay: cryo-EM structure; remark: listed apart in the source

B1: minimal functional rat TRPV1 ([…] and […]) (receptor)
chain: not shown
B1 was tested, and the “stoichiometry N” value (cryo-EM structure [1]) was 4.

B2: full-length rat TRPV1 ([…]) (receptor)
chain: not shown
B2: binds (cryo-EM structure [2]).
